Data as given in the supplement of paper PMC3334620.
Whole data set: some 33,000 sequences, median “E-score (-0.5 to 0.5)” near -0.013, cut for the highest 2% near 0.3. The list shows a part of the results.

Biological target: T1, Msn1 (UniProt P22148)
T1 sequence: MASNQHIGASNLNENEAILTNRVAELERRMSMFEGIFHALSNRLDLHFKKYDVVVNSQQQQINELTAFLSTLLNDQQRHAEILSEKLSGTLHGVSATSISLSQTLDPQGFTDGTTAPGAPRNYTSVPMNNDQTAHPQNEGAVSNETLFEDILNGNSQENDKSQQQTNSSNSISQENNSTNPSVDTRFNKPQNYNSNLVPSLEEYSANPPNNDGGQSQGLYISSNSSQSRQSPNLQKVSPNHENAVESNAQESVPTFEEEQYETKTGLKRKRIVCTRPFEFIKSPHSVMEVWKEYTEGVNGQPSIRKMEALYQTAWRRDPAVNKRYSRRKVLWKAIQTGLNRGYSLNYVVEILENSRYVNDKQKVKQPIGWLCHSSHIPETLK
Test: PBM E-score (8-mer binding enrichment) (E-score (-0.5 to 0.5)); higher = stronger / more preferred TF binding; most listed sequences are background and not binding sites
Conditions: protein concentration: 200 nM; construct: GST-full length
How it was run: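 Yeast transcription factors carrying a GST tag, as full-length proteins or DNA-binding domains, were produced by PURExpress in vitro transcription/translation. About 100-200 nM protein was applied to universal all-10-mer Agilent arrays, double-stranded by primer extension on fresh or once-stripped slides. Bound protein was detected with fluorescent anti-GST, and scans were normalised with masliner. The Universal PBM Analysis Suite gave each ungapped eight-base word, pooled with its reverse complement, an E-score, a modified Wilcoxon-Mann-Whitney statistic.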

Sequence	PBM E-score
AAGGTATA	0.0465
TATGGCCA	0.00903
AGTCGACA	0.26
CTTAACTC	-0.00904
CGAACTTA	0.0768
ATCGTCTA	0.0246
CGACGTGC	-0.0162
CCTCGAAA	-0.0128
AAGGAGTA	-0.188
AATTGTCG	0.362
ACCAGCAC	-0.108
CCAAGCCG	-0.0418
GGCGATGA	-0.136
CGGCCAGC	-0.116
AGAGCTCT	-0.265
AGCCCGAG	-0.143
ATTTATGG	0.146
CTGCCTAA	-0.0567
GGAACAGA	0.0477
CTCAGGTC	-0.0234
CATGACCC	-0.177
GCCACCAC	-0.247
CTCAACCC	-0.184
CACTTGCC	-0.0233
CGTTTTCC	0.041

Sequence	PBM E-score
CATGTAGC	-0.0387
AAGCGTGC	-0.177
TCTTTGCA	-0.0521
ATGACCCG	-0.0682
GCATACGA	-0.165
CCGCAGAA	0.182
CTCTAACC	-0.244
CAGCTCCG	-0.0775
CTTCTAAC	-0.111
AACTATAA	0.185
TAAGCCTA	0.0536
AATACTCG	0.0121
CTACAAGA	-0.128
CGTCTGTC	0.131
GACATGAA	0.308
CGCTTTCA	0.0815
CGCGCACG	-0.13
AGCCTATG	-0.111
GTTCTCAA	0.123
CGACGCAC	-0.0629
GATGGACC	0.0221
ACTTCGCG	0.0341
ACTACAAG	0.00028
CGTAGCAG	-0.139
GGACTTCA	0.0504

Sequence	PBM E-score
ACTTGGCA	-0.076
CGTTACGA	0.0541
GCATGCGA	-0.0856
GCCGTGAC	0.158
GGTTCTGA	-0.0796
GATTTCAA	0.0797
TGATAAAA	0.0459
ATGATTAG	0.169
ATAGGACG	0.242
GGCTACCA	0.0403
AGCCACCT	-0.261
AATCAAGA	0.115
TAAAAGTA	0.188
ATGGCCCA	-0.0235
CCCCTCCC	-0.221
GGAGATAC	-0.225
CGTGACAA	0.309
CTTCCCGA	0.0228
ATCTTGAG	0.0323
GGGACGAA	0.187
CAGGGCGA	-0.121
AACGCATT	0.0662
ACTGACCG	-0.11
CATCTTGA	0.0629
ACGTAACC	-0.0178

Sequence	PBM E-score
GGACATTA	0.489
GGATGGTA	0.00466
CAATGATG	0.0709
CCCGGTGA	-0.239
ATCGACTC	-0.189
AGTCATCA	-0.129
AGCCCAAC	-0.172
CGTCGCAG	0.0259
ACCCGGAG	0.177
GAGGATTA	-0.0843
GCCGACAC	-0.0139
GAACTTGC	-0.0482
CTTCGATA	-0.00326
GGCAGTAA	0.057
GCAGCACA	-0.014
ACTGTAAA	0.182
AAACCAAA	0.0684
ATGGGTAG	-0.0205
CATAAGAC	0.127
TGACCGAA	-0.0832
AGGCTAAT	-0.0128
CACGCTTA	0.0573
AATGCTGT	0.102
GCCTGCCA	-0.106
CATGTACC	0.186

Sequence	PBM E-score
AGTGTGCC	-0.0965
CGGGGGTA	-0.132
CCCGAAAA	0.0898
GTCAACAA	0.0142
AGCCAGCC	-0.24
AAATAGTA	0.172
ACTGTCTG	0.079
CCAAAACC	-0.0194
CCAGCGAA	-0.131
CAGGTGAA	0.0265
CAGATCCA	-0.00698
CTATCGAG	-0.0768
CCGTACTC	-0.0838
GGTCACCA	-0.141
GCCGCCTA	-0.173
AGTTATCG	0.0754
AAGCTAAT	0.219
CGTGGGGC	-0.306
ACCAACAT	0.176
CTGTGTAC	0.197
CTGAGAAC	-0.0397
CAAATGTC	0.471
TCATTTCA	0.0279
ATTGGCGC	-0.0295
CTGGGAAG	-0.178

Sequence	PBM E-score
AAAGGGCC	-0.377
CACTCGAC	0.0548
CGGCATTC	-0.0374
GGGGTATA	-0.0556
AGCCCACA	-0.248
ACATGGAC	0.326
ATGCACCC	-0.084
CTTCTGAA	0.0733
CCGCGACG	0.114
ACATGGCG	-0.0945
AAGTTAAA	0.108
ATAGGTAG	-0.0873
GCTTGCAA	-0.0398
TAATCTCA	-0.133
ACGGGCTA	-0.135
ACGATAAG	0.0245
AATTCTAC	0.114
CGGGACGA	0.115
ACTTAAGC	-0.0761
AAAAAGAG	-0.0517
GCGAATAA	0.152
AGACCGAG	0.0557
AAGTCCAG	0.244
CCAGGGCC	-0.337
GGAATGGA	0.0954

Sequence	PBM E-score
TAGAGCGA	-0.0106
GGGTGTCA	-0.0869
AGAGTTTG	0.0601
TACGCCTA	-0.077
CGTCACCA	-0.00976
AAACCTGC	-0.0481
CCCCGACC	-0.275
AATAATGC	0.0867
CGGCAACA	0.153
ACTAAAAC	0.14
TACGAAAA	0.165
AGCTGTCC	0.0154
CATCAAAA	0.19
ACAGATAT	0.179
AAACTAAG	0.179
ACGTTTCG	-0.0593
ATCATCAT	0.0315
GAATAGGA	0.0921
GTTCGCCA	-0.0522
AAAGGACT	0.0135
GCCCGCAA	-0.0655
ATGTAAAC	0.159
